Experimental data: patent US12551573B2, “Compositions and methods for the targeting of PCSK9” (Scribe Therapeutics Inc., priority 2022, dated 2026)
Residue numbers refer to the chain shown, from its start. Where two headings read alike, the source gives them in different places.

B1: DOMAIN_11554 (protein)
chain: GSLTFRDVAIEFSLEEWQCLDTAQQNLYRNVMLENYRNLVFLGIAAPKPDLIIFLEQGKEPWNVKRHEMVEEPPVICSHFA
modifications: Nomascus leucogenys
B2: DOMAIN_11567 (protein, listed as Zalophus californianus)
chain: GHALLTFRDVAIEFSQEEWGCLNHTQRELYRDVMLENYGHLLFLGLIVSKPDLVSFLEQTKDPWDGKRKKTVAFHPGLALS
B3: DOMAIN_11612 (protein, listed as Loxodonta africana)
chain: VVFTDVAVDFSQEEWECLDSYQRSLYRDVILENYSNLVSLGGGSISKPDVVTLLEQGKEPWMVVRDTKIRWSLGLESNYDA
B4: DOMAIN_11621 (protein, listed as Chrysochloris asiatica)
chain: KPGIVRFADVAVYFSREEWACLRPAQRALYRDVMRETYGHLGALGFPGPKPALISWMERESEAWSPAAQEPKEGENLGGAP
B5: DOMAIN_11643 (protein)
chain: AQGYVTFEDVAVYFSQEEWRLLDEAQKLLYRNVMLENFSLLASLGLASSKTHEITQLESWEEPFMPAWEVVTSATPRGTWW
modifications: Nomascus leucogenys
B6: DOMAIN_14659 (protein, listed as Acinonyx jubatus)
chain: PQESVTFKDIAVDFTQEEWALLDASQRKLYRDVMLENIGHLVSVGYRVCKSDVISQLQQGVELWREGRGFPQGVIPDRKSS
B7: DOMAIN_11672 (protein, listed as Suricata suricatta)
chain: SLEPDSFGDVAVLFSQEEWARLAPAQRELYRDVMLETYSHLVSLGLAVSKPDVISFLEQGKEPWLGEKAAAGGLGPELESR
B8: DOMAIN_11701 (protein, listed as Capra hircus)
chain: DLDQVTFEDVVVDFTREEWGCLEPAQRTLYRDVMLETFRLLVSVGHWLPKPDVISLLEQEAELWAADEGGPRGMCPDLETR
B9: DOMAIN_11726 (protein, listed as Sus scrofa)
chain: AHMAFRDVAVDFTQEEWMLLSPAQRSLYREVMLENYSNMVSLGIPFSKPKLITQLEQGKETWREERKCPPATCSAEPQPEL
B10: DOMAIN_11749 (protein, listed as Chlorocebus sabaeus)
chain: FQEPVTFEDVAVYFTQNEWASLHPTQRALYREVMLENYANVTSLLAFPFPKPALISHLERGEAPWGPDPWDTEIPRGISQG
B11: DOMAIN_11760 (protein, listed as Neophocaena asiaeorientalis)
chain: KSKSKAPVTFGDLAIYFSQEEWEWLSPIQKDLYEDVMLENYQNLVSLGLSFRRPNVITLLEKGKAPWMVEPVKRRRGLGPL
B12: DOMAIN_11813 (protein, listed as Canis lupus)
chain: SKVPVTFGDLAIYFSQEEWEWLSPIQKDLYEDVMLENYQNLVSLGLSFRRPNVITLLEKGKAPWVVEPVRKRRGLDSGFKC
B13: DOMAIN_11825 (protein, listed as Mandrillus leucophaeus)
chain: B12 chain with V3A, V5I, Q39R, V65M, V66I, K71R, G74A, L75P, F79S
B14: DOMAIN_14755 (protein)
chain: MGQLTFNDVTIEFSLEEWQCLDKPQQNLYREVMLENYRNLVFLGIAVSKPDLITCLKQGKEPWNIRRHEMVTKPPAMCSHF
modifications: Cebus imitator
B15: DOMAIN_11851 (protein)
chain: VQEPVTFKDVAVDFTQEEWGQLDLVQRTLYRDVMLETYGHLLSVGNQIAKPEVISLLEQGEEPWSVEQACPQRTGPEWVRN
modifications: Nomascus leucogenys

Tested on: HBEGF locus
Format: cell-based, human
[1] = repressor domain in dXR, repression of the HBEGF gene, abundance of domain in library after vs before diphtheria toxin selection
[2] = high-throughput screen of dXR repression of the HBEGF gene, change in abundance of each domain in the library before and after diphtheria toxin selection

| Molecule | Log2 (fold change) [1] | Log2 (fold change) [2] |
| --- | --- | --- |
| B1 | 3.0498 | – |
| B2 | 3.4239 | – |
| B3 | 3.3006 | – |
| B4 | 3.2074 | – |
| B5 | 2.3544 | – |
| B6 | – | 4.0495 |
| B7 | 3.318 | – |
| B8 | 2.5282 | – |
| B9 | 3.4183 | – |
| B10 | 3.2721 | – |
| B11 | 2.8102 | – |
| B12 | 3.5195 | – |
| B13 | 3.9893 | – |
| B14 | – | 3.1667 |
| B15 | 3.0241 | – |
